# Whole data set: some 81,000 sequences, median “one-hybrid fitness for binding NBS DNA” near -0.1, cut for the highest 2% near 0.36. Some of the results follow.
# B1: Caulobacter ParB omega fusion; a variant is named by its letters at X, in order, B8GW30 (parent)
# chain: MESVVVGEPGMSEGRRGLGRGLSALLGEVDAAPAQAPGEQLGGSREAPIEILQRNPDQPRRTFREEDLEDLSNSIREKGVLQPILVRPSPDTAGEYQIVAGERAWRAAQRAGLKTVPIMVRELDDLAVLEIGIIENVQRADLNVLEEALSYKVLMEKFERTQENIAQTIGKSXSHVANXMRLLXLPDEVQSYLVSGELTAXHARAIAAAADPVALAKQIIEGGLSVRETEALARKAPNLSAGKSKGGRPPRVKDTDTQALESDLSSVLGLDVSIDHRGSTGTLTITYATLEQLDDLCNRLTRGI
# Variants of: B1
# Experiment: one-hybrid fitness for binding NBS DNA (the Noc-binding site; scaled: cognate 1, non-cognate 0); higher = stronger binding
# Conditions: with NBS DNA site
# Method in brief: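 In E. coli USO, a HIS3 reporter with its site placed 19 bp from the promoter was used to select Caulobacter ParB variants randomised at four specificity codons. Growth lasted 48 hours at 37°C on histidine-free M9 containing 0.1 mM IPTG and 5 mM 3-AT. Fitness was taken as the log change in variant-to-wild-type read ratio from Illumina sequencing of pre- and post-selection plasmids, rescaled between the non-cognate and cognate sites.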
row,Variant,one-hybrid fitness for binding NBS DNA
1,VLVK,≤ 0.2
2,SRAK,≤ 0.2
3,CEWR,≤ 0.2
4,INAV,≤ 0.2
5,RRQL,≤ 0.2
6,VWYG,≤ 0.2
7,YSAK,≤ 0.2
8,ASLL,≤ 0.2
9,KFMF,≤ 0.2
10,CKRY,≤ 0.2
11,MEVA,≤ 0.2
12,PRTV,≤ 0.2
13,LNTY,≤ 0.2
14,SLQT,≤ 0.2
15,AIQS,≤ 0.2
16,LYPY,≤ 0.2
17,HECR,≤ 0.2
18,ALRF,≤ 0.2
19,QTKH,0.744
20,AVSI,≤ 0.2
21,LLLF,≤ 0.2
22,FFPC,≤ 0.2
23,GYIT,≤ 0.2
24,RKAC,0.257
25,LLQH,≤ 0.2

row,Variant,one-hybrid fitness for binding NBS DNA
1,IEHV,≤ 0.2
2,LATC,≤ 0.2
3,KRVE,≤ 0.2
4,QDMR,≤ 0.2
5,HTNL,≤ 0.2
6,AESW,≤ 0.2
7,PPRI,≤ 0.2
8,KIIR,≤ 0.2
9,KKST,0.348
10,SAIE,≤ 0.2
11,HVVT,≤ 0.2
12,HTGT,≤ 0.2
13,MELC,≤ 0.2
14,CETT,≤ 0.2
15,LYIR,≤ 0.2
16,WNRS,≤ 0.2
17,PAIP,≤ 0.2
18,PIHW,≤ 0.2
19,RKPV,≤ 0.2
20,TSTN,≤ 0.2
21,VANP,≤ 0.2
22,NPMV,≤ 0.2
23,QQAS,0.435
24,AGYW,≤ 0.2
25,RGLV,≤ 0.2

row,Variant,one-hybrid fitness for binding NBS DNA
1,SNDL,≤ 0.2
2,SAKC,≤ 0.2
3,NMPF,≤ 0.2
4,RGFT,≤ 0.2
5,LTSC,≤ 0.2
6,KYSS,≤ 0.2
7,TPPY,≤ 0.2
8,GYPY,≤ 0.2
9,PNKW,≤ 0.2
10,SVYS,≤ 0.2
11,LEMF,≤ 0.2
12,ASFL,≤ 0.2
13,LDDD,≤ 0.2
14,FSFV,≤ 0.2
15,VLNT,≤ 0.2
16,MGLW,≤ 0.2
17,GLQD,≤ 0.2
18,GAKV,≤ 0.2
19,TWIR,≤ 0.2
20,VNPV,≤ 0.2
21,IMST,≤ 0.2
22,DGHC,≤ 0.2
23,SRDT,≤ 0.2
24,KCLV,≤ 0.2
25,RSMK,≤ 0.2

row,Variant,one-hybrid fitness for binding NBS DNA
1,LQHG,≤ 0.2
2,NDHG,≤ 0.2
3,TPIC,≤ 0.2
4,LQRL,≤ 0.2
5,STCT,≤ 0.2
6,RYAF,≤ 0.2
7,RLSF,≤ 0.2
8,DGKS,≤ 0.2
9,CGSK,≤ 0.2
10,MQNW,≤ 0.2
11,QQDG,≤ 0.2
12,NFVA,≤ 0.2
13,VEVS,≤ 0.2
14,TLQL,≤ 0.2
15,EPRM,≤ 0.2
16,VKHI,≤ 0.2
17,TAKM,≤ 0.2
18,VHVA,≤ 0.2
19,DRRT,≤ 0.2
20,RWTK,≤ 0.2
21,YRCS,≤ 0.2
22,TDTR,≤ 0.2

# From a collection of fitness landscapes (doi:10.1016/j.celrep.2020.107928)
